# Reference: patent US7592316B2, “Peptides as NS3-serine protease inhibitors of hepatitis C virus” (Schering Corporation, priority 2000, dated 2009)
# *1 amine or outer side, *2 acyl side, *3 side chain or, on linkers, in order; H or OH if unused. Where a SMILES comes first, the peptide text is derived from it. [ ]: non-standard residue; d: D form. The star is where a group is joined. ξ: configuration not given here. ξ(3-Amino-2-oxopentanoyl) = CCC(N[*:1])C(=O)C(=O)[*:2]; Pro(4,4-S(CH2)3S) = O=C(O)[C@@H]1CC2(CN1)SCCCS2; ξPro(4,4-S(CH2)3S) = O=C(O)C1CC2(CN1)SCCCS2; Isobutyloxycarbonyl = CC(C)COC(=O)*; X8 = O=C(C(=O)[*:2])C(CC1CC1)N[*:1]; Hyp = O=C(O)[C@@H]1C[C@@H](O)CN1; X2 = CCCC(N[*:1])C(=O)C(=O)[*:2]; Tic = O=C(O)[C@@H]1Cc2ccccc2CN1; Chg = N[C@H](C(=O)O)C1CCCCC1; Phg = N[C@H](C(=O)O)c1ccccc1; Tle = CC(C)(C)[C@H](N)C(=O)O; X59 = NC(=O)c1ccccc1C(=O)*; ξChg = NC(C(=O)O)C1CCCCC1; ξPhg = NC(C(=O)O)c1ccccc1; Orn = NCCC[C@H](N)C(=O)O; PhAc = O=C(Cc1ccccc1)*; Bn = c1ccc(C*)cc1; OtBu = CC(C)(C)O*; ξS = NC(CO)C(=O)O; tBu = CC(C)(C)*
# Molecular target: HCV NS3/NS4A protease (strain 1a) (Hepatitis C virus genotype 1a, UniProt P27958)
# Test: biochemical
# Conditions: Compounds prepared by Solid Phase Synthesis, Table 3; read-out: Ki* CLASS
row,Structure (SMILES),Ki [nM]
1,CCC(NC(=O)[C@@H]1C[C@@H](OC(C)(C)C)CN1C(=O)[C@@H](NC(=O)c1ccccc1C(N)=O)C1CCCCC1)C(=O)C(=O)NCC(=O)N[C@H](C(N)=O)c1ccccc1 (stereo partly drawn) (X59-[Chg][Hyp](tBu)[ξ(3-Amino-2-oxopentanoyl)]G[Phg]-NH2),101 to 1000
2,CCCC(NC(=O)[C@@H]1Cc2ccccc2CN1C(=O)C(NC(=O)OCC(C)C)C1CCCCC1)C(=O)C(=O)NCC(=O)NC(COC(C)(C)C)C(N)=O (stereo partly drawn) (Isobutyloxycarbonyl-[ξChg][Tic][X2]G[ξS](tBu)-NH2),> 1000
3,CCCC(NC(=O)[C@@H]1C[C@@H](OCc2ccccc2)CN1C(=O)[C@H](CCCNC(=O)Cc1ccccc1)NC(=O)OCC(C)C)C(=O)C(=O)NCC(=O)N[C@H](C(N)=O)c1ccccc1 (stereo partly drawn) (Isobutyloxycarbonyl-[Orn](PhAc)[Hyp](Bn)[X2]G[Phg]-NH2),> 1000

# Same assay, conditions: HCV protease continuous assay results, Table 1; read-out: Ki* Range
row,Structure (SMILES),Ki [nM]
1,"CCCC(NC(=O)[C@@H]1CC2(CN1C(=O)[C@@H](NC(=O)Cc1ccccc1)C(C)(C)C)SCCCS2)C(=O)C(=O)NCC(=O)NC(C(=O)N(C)C)c1ccccc1 (stereo partly drawn) [Example 230] (PhAc-[Tle][Pro(4,4-S(CH2)3S)][X2]G[ξPhg]-NMe2)",1 to 100
2,CCCC(NC(=O)[C@@H]1C[C@@H](OC(C)(C)C)CN1C(=O)[C@@H](NC(=O)OCC(C)C)C1CCCCC1)C(=O)C(=O)OC (stereo partly drawn) [Example 312],> 1000
3,CCCC(NC(=O)[C@@H]1C[C@@H](OCc2ccccc2)CN1C(=O)[C@@H](NC(=O)[C@H](CC(C)C)NS(C)(=O)=O)C1CCCCC1)C(=O)C(=O)NCCOC(C(N)=O)c1ccccc1 (stereo partly drawn) [Example 104],> 1000
4,CCCCC(NC(=O)C1[C@@H]2[C@H](CN1C(=O)[C@@H](NC(=O)OCC(C)C)C(C)(C)C)C2(C)C)C(=O)C(=O)NCC(=O)N[C@H](C(=O)N(C)C)c1ccccc1 (stereo partly drawn) [Example 330],1 to 100
5,C=CCNC(=O)C(=O)C(CCC)NC(=O)[C@@H]1CCCN1C(=O)[C@@H](NC(=O)[C@H](Cc1ccccc1)NC(=O)OC(C)(C)C)C(C)C (stereo partly drawn) [Example 46],> 1000
6,CCCC(NC(=O)[C@@H]1C[C@@H](OC(C)(C)C)CN1C(=O)[C@@H](NC(=O)OCC(C)C)C(C)(C)C)C(=O)C(=O)NCC(=O)N[C@H](C(=O)N(C)C)c1ccccc1 (stereo partly drawn) [Example 219] (Isobutyloxycarbonyl-[Tle][Hyp](tBu)[X2]G[Phg]-NMe2),1 to 100
7,C=CCCC(NC(=O)[C@@H]1[C@@H]2[C@H](CN1C(=O)[C@@H](NC(=O)OC(C)(C)C)C(C)(C)C)C2(C)C)C(=O)C(=O)NCCC(=O)O (stereo partly drawn) [Example 349],> 1000
8,"CC(C)COC(=O)N[C@H](C(=O)N1CC2(CC1C(=O)NC(CC1CC1)C(=O)C(=O)NCC(=O)NC(C(=O)OC(C)(C)C)c1ccccc1)SCCCS2)C1CCCCC1 (stereo partly drawn) [Example 146] (Isobutyloxycarbonyl-[Chg][ξPro(4,4-S(CH2)3S)][X8]G[ξPhg]-OtBu)",1 to 100

# Same assay, conditions: Table 4; HCV NS3/NS4A protease, spectrophotometric assay, 30° C., pH 6.5; read-out: Ki* Range
row,Ki [nM],Structure (SMILES)
1,1 to 100,CCC[C@H](NC(=O)[C@@H]1C2[C@H](CN1C(=O)[C@@H](NC(=O)OC(C)C)C(C)(C)C)C2(C)C)C(=O)C(=O)NCC(=O)N[C@H](C(=O)N(C)C)c1ccccc1 (stereo partly drawn)
2,1 to 100,CCCC(NC(=O)[C@@H]1C[C@@H](NC(=O)Nc2ccccc2)CN1C(=O)[C@@H](NC(=O)OCC(C)C)C1CCCCC1)C(=O)C(=O)NCC(=O)N[C@H](C(N)=O)c1ccccc1 (stereo partly drawn)

# Same assay, conditions: Table 5; HCV NS3/NS4A protease, 30° C., pH 6.5; read-out: Ki* Range
row,Ki [nM],Structure (SMILES)
1,> 1000,C=CCCNC(=O)C(=O)C(CCC=C)NC(=O)[C@@H]1[C@@H]2[C@H](CN1C(=O)[C@@H](NS(=O)(=O)N(C)C)C(C)(C)C)C2(C)C (stereo partly drawn)
2,1 to 100,C=CCCC(NC(=O)[C@@H]1C2C(CN1C(=O)[C@@H](NC(=O)NC(C)(C)C)C1CCCCC1)C2(C)C)C(=O)C(=O)NCCC(=O)C(C)C (stereo partly drawn)
3,1 to 100,C=CCCC(NC(=O)[C@@H]1C2C(CN1C(=O)[C@@H](NC(=O)OCC(C)(C)C)C1Cc3ccccc3C1)C2(C)C)C(=O)C(=O)NCC=C (stereo partly drawn)
4,1 to 100,C=CCNC(=O)C(=O)C(CCC)NC(=O)[C@@H]1[C@H]2[C@@H](CN1C(=O)C(NC(=O)OC1CC(C)CC1C)C1CCCCC1)C2(C)C (stereo partly drawn)
5,101 to 1000,CNC(=O)C(=O)C(CC1CC1)NC(=O)[C@@H]1[C@@H]2[C@H](CN1C(=O)[C@@H](NC(=O)NC1CCCCC1)C(C)(C)C)C2(C)C (stereo partly drawn)
6,101 to 1000,C#CC(C)(C)OC(=O)CCNC(=O)C(=O)C(CCC=C)NC(=O)[C@@H]1[C@@H]2[C@H](CN1C(=O)[C@@H](NC(=O)OC(C)(C)C)C(C)(C)C)C2(C)C (stereo partly drawn)

row,Structure (SMILES),Ki [nM]
1,C=CCNC(=O)C(=O)C(CCC)NC(=O)[C@@H]1C2C(CN1C(=O)C(NC(=O)[C@@H](NC(=O)OC(C)(C)C)C(c1ccccc1)c1ccccc1)C(C)(C)C)C2(C)C (stereo partly drawn),> 1000

# Same assay, conditions: Table 5; HCV NS3/NS4A protease, spectrophotometric assay, 30° C., pH 6.5; read-out: Ki* Range
row,Ki [nM],Structure (SMILES)
1,> 1000,C=CCNC(=O)C(=O)C(CCC)NC(=O)[C@@H]1[C@H]2OC(C)(C)O[C@H]2CN1C(=O)[C@@H](NC(=O)OC(C)(C)C)C(C)(C)C (stereo partly drawn)
2,101 to 1000,C=CCCCNC(=O)C(=O)C(CCC=C)NC(=O)[C@@H]1[C@H]2[C@@H](CN1C(=O)[C@@H](NC(=O)OC(C)(C)C)C1CCCCC1)C2(C)C (stereo partly drawn)
3,101 to 1000,CONC(=O)C(=O)C(CC1CC1)NC(=O)[C@@H]1[C@@H]2[C@H](CN1C(=O)[C@@H](NC(=O)OC(C)(C)C)C1CCCCC1)C2(C)C (stereo partly drawn)
4,1 to 100,CC(C)[C@@H](C)OC(=O)N[C@H](C(=O)N1C[C@@H]2[C@H]([C@H]1C(=O)NC(CC1CCC1)C(=O)C(N)=O)C2(C)C)C1CCCCC1 (stereo partly drawn)
